# Test results: the supplement of paper PMC3334620
# In all, about 33,000 sequences were measured (“E-score (-0.5 to 0.5)”: median about -0.011, highest 2% from about 0.28 on). Some of the results follow.
# Target: T1, Gcr1 (UniProt P07261)
# T1 sequence: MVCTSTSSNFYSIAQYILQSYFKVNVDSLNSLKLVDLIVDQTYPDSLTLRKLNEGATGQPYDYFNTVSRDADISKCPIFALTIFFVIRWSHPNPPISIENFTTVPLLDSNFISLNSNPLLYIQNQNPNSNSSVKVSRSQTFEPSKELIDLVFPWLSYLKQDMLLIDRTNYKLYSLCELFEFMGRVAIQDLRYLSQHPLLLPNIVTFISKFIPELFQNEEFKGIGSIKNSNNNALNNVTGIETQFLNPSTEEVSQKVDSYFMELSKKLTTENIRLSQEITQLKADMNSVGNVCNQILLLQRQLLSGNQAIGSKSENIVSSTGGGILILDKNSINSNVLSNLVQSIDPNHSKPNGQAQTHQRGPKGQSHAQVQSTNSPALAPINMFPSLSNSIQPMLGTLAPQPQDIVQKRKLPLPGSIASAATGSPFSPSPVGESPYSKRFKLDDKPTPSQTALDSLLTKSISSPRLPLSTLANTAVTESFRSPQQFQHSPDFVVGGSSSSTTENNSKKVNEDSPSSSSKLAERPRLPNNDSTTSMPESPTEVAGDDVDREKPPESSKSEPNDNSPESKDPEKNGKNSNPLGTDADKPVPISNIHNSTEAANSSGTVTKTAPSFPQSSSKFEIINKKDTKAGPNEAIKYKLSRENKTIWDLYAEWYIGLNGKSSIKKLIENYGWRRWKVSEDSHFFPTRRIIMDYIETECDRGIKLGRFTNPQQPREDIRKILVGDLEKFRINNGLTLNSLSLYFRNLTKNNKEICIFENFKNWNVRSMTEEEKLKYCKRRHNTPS
# Test: PBM E-score (8-mer binding enrichment) (E-score (-0.5 to 0.5)); higher = stronger / more preferred TF binding; most listed sequences are background and not binding sites
# Settings: protein concentration: 100 nM; construct: GST-full length
# Procedure, shortened: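 Detection of bound protein used fluorescent anti-GST, with scans normalised by masliner. The proteins were GST-tagged yeast transcription factors applied at about 100-200 nM to universal all-10-mer Agilent arrays made double-stranded by primer extension. Each ungapped eight-base word, pooled with its reverse complement, was scored with an E-score from the Universal PBM Analysis Suite.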
row,Sequence,PBM E-score
1,GGTGGAGA,-0.232
2,CAATAGTG,0.15
3,ATCTAGTG,0.132
4,AGTAAGGG,-0.148
5,TGTCGAAA,-0.179
6,CGAACTGC,0.087
7,CGACTTAA,0.00479
8,AGAAACTG,-0.0761
9,GGCAATAA,-0.153
10,CTCCTGCC,-0.00864
11,CGCCTGGC,-0.118
12,ACAAGACG,0.0879
13,CACACGTG,-0.0936
14,GAGCACCA,0.207
15,CCGCCAAG,-0.0931
16,CATCCGTA,0.0745
17,CAAGACTG,-0.134
18,GATCAAGC,-0.0969
19,AGGGGTGG,-0.0736
20,CCTGAGCC,0.0888
21,ACATGGTC,-0.0999
22,AAACCGCT,-0.273
23,AATCTAAG,-0.0118
24,TCTTGGCA,0.205
25,AGTTTAAT,0.0173

row,Sequence,PBM E-score
1,CTACACCA,-0.0681
2,ATTCACCA,0.083
3,CTTGTACA,0.0263
4,ACACGTCT,0.112
5,AAACGAGC,0.116
6,CCAACATC,0.038
7,TAGCCGGA,0.00917
8,GGGCAAAC,-0.336
9,CCCAGAAA,0.283
10,AGTTGTGG,0.136
11,ACCAAGCC,-0.147
12,AAGGCTAC,-0.109
13,CGTTCTGC,-0.122
14,ACGTGTGG,-0.176
15,CTCGGCAC,-0.0534
16,CCAAGCTA,-0.0611
17,AAATAGAG,-0.031
18,CGGGAACA,0.126
19,GAAGAGTA,-0.0196
20,AACGACAG,0.022
21,GACGCCAA,0.2
22,CCAAAATA,0.204
23,ATGCGAAG,0.223
24,ATACTGAG,0.134
25,CATGTCAC,0.0522

row,Sequence,PBM E-score
1,TCCCCCGA,-0.0585
2,AAAGGTAC,0.137
3,AATCGATG,-0.0944
4,ATTAGAAG,0.2
5,CAACAGAA,0.031
6,CCAGGAGG,-0.069
7,CAGGCCAG,-0.207
8,CAGACAAG,-0.154
9,GATGGTTA,-0.0423
10,AAATCGAA,-0.0161
11,ATCCGAGG,-0.112
12,AGGTTGCA,0.125
13,CGGGGTTC,0.13
14,CAAATACG,0.165
15,AACGAATG,0.0444
16,CAGTATAC,0.0383
17,AAAGGGAA,0.102
18,CTAAATGC,0.093
19,GGGGGAAA,-0.0544
20,CTGGTGGA,-0.00688
21,GGCGCCCA,0.398
22,CCGTAAAG,0.0627
23,AAATCATG,-0.0472
24,GAAAATAC,-0.0193
25,CCTTGTGC,-0.0712

row,Sequence,PBM E-score
1,CGCCGAGC,-0.138
2,CGTAGACA,-0.152
3,TGCCCCAA,-0.00246
4,GAGGTTAC,-0.105
5,ATTCAGCA,-0.212
6,CTTTTCAA,0.0295
7,GGAGCCCC,0.265
8,CAAAGAGC,-0.0142
9,ACCGCGTA,-0.162
10,GCTACTCA,0.0222
11,ATACAGGA,0.308
12,AACGATCT,-0.147
13,ACCATCGG,-0.00354
14,AGCGCACT,-0.194
15,CCAACGGA,0.0308
16,CCGGTCAC,0.0414
17,AGAAACTC,-0.149
18,CTCAACTC,0.112
19,GCATAGAC,-0.15
20,AGAAACAT,0.113
21,ACGTTCGG,-0.0346
22,GCACGAGC,0.014
23,ACTGTTAG,-0.15
24,AGTCTACC,-0.0451
25,GCTCCGCC,0.0324

row,Sequence,PBM E-score
1,AGGGACCA,0.00709
2,AGCGCGCC,0.16
3,ATGAGCAA,-0.0522
4,AAGACGAT,0.0896
5,GCGTACTA,-0.16
6,ACAAGTGA,-0.145
7,CGAAGTGA,0.0729
8,AGGACAGC,-0.262
9,GACACCCC,-0.0371
10,CACTAACC,0.0105
11,TAACCGAA,0.0338
12,CGCTTAAG,-0.0441
13,ACGGACTA,-0.163
14,GGTGAATA,0.0632
15,AAACAGAC,0.0356
16,CCGTCGCC,-0.0263
17,ATCTGATC,-0.0261
18,AATACTAA,0.183
19,CCAAGAAA,0.0208
20,TGCACGCA,-0.156
21,CATGCGTA,-0.0942
22,AGGGCATC,0.129
23,AACGTTCA,-0.189
24,ATCAAAAT,-0.00678
25,GGTAGGAA,0.116

row,Sequence,PBM E-score
1,AGCAATTG,0.0399
2,ACGCAGCT,0.308
3,GCGGTCTA,-0.146
4,CCAAGGTC,-0.0561
5,AAGCCGGC,-0.0637
6,AGCGTATA,0.0272
7,ATATACTC,-0.0622
8,CACTATAA,0.0785
9,CATCCAGG,0.174
10,GGAACCAC,0.284
11,AGTTTTGG,0.25
12,AGCTCAGG,-0.0753
13,CCCCATAC,0.036
14,CCTTGTAC,0.0571
15,CGCTGATC,-0.0958
16,AAATCCGA,0.108
17,CGTGGTAG,-0.133
18,GTGACCTA,-0.063
19,ATGTACCA,0.191
20,GCCAGCCA,-0.0514
21,CCCTGGGA,-0.0318
22,CAACTACA,0.104
23,GATGTGAC,0.127
24,CACTCGAG,-0.128
25,GATCGATC,-0.267

row,Sequence,PBM E-score
1,CCTCCTCC,-0.222
2,GACATGGA,-0.0587
3,CCTGGAGA,-0.00605
4,CGGTGGAC,0.00403
5,AGTCACCG,-0.0379
6,CAAGAAAA,0.248
7,TACCCGCA,0.228
8,CAATGGAG,-0.0973
9,AGAAAGCC,-0.0934
10,CTCTCCTC,-0.127
11,ACCCGCGG,-0.151
12,CGTTCTAC,-0.0602
13,AGCCTCGA,-0.141
14,GCTTACAA,-0.0662
15,AAAGGGAT,-0.0756
16,CCCTGAAG,-0.049
17,GACTTGAA,-0.00094
18,TAATGTAA,0.0435
19,AGCAGCCA,0.35
20,AGAAACCC,0.0901
21,GGTACCCA,0.18
22,AAGGGCCG,-0.0962
